# In ChEMBL document CHEMBL1201862, “PubChem BioAssay data set” (2004):
# System: NCI-H322M
# Test: inhibition of tumour cell growth, NCI panel, 48 h
row,SMILES,GI50
1,CC(=O)c1ccccc1NP(=O)(c1ccccc1)c1ccccc1,inactive: 44.8 µM
2,O=C1Nc2ccccc2/C1=C\c1c(Cl)n(-c2ccccc2)c2ccccc12,inactive: 3.81 µM
3,O=C(O)CN(CCNC(=O)OCC1c2ccccc2-c2ccccc21)CCNC(=O)OCC1c2ccccc2-c2ccccc21,inactive: 30.4 µM
4,Cc1cc(O)c2c(c1)C(C1c3cccc(O)c3C(=O)c3c(O)cc(C)cc31)c1cccc(O)c1C2=O (centres undefined),active: 0.914 µM
5,CCCCc1ccc(Nc2nc(S)c3ncn(COCCO)c3n2)cc1,inactive: 53.7 µM
6,C[C@H](CCC(=O)NCCS(=O)(=O)O)[C@H]1CC[C@H]2[C@@H]3[C@H](O)C[C@@H]4C[C@H](O)CC[C@]4(C)[C@H]3CC[C@]12C,inactive: > 100 µM
7,CC12c3c4ccc(C=O)c3Oc3ccc(C=O)c(c31)Oc1ccc(C=O)c(c12)O4,inactive: > 25 µM
8,COc1cc2nc(-c3cccs3)nc(N3CCN(c4ccccc4C(F)(F)F)CC3)c2cc1OC,inactive: > 100 µM
9,COc1ccccc1N1C(=O)/C(=C\c2ccccc2)SC1c1cc(OC)c(OC)c(OC)c1 (centres undefined),inactive: 32.6 µM
10,CC(=O)CN/C(C)=N/Nc1ccc([N+](=O)[O-])cc1[N+](=O)[O-],inactive: > 100 µM
11,COC(=O)c1sc2c(c1C(=O)OC)/C(=N/c1ccc(OC)cc1)S/C2=N\c1ccc(OC)cc1,inactive: 1.6 µM
12,CN(C)CC1CCCC/C1=N/OC(=O)c1ccc(Cl)c(Cl)c1 (centres undefined),inactive: > 100 µM
13,O=P(Nc1cccc(Cl)c1)(Oc1ccccc1)N(CCCl)CCCl (centres undefined),inactive: 15.2 µM
14,COC(=O)Oc1nn(C(=O)OC)c(=O)c2ccccc12,inactive: > 100 µM
15,CCOc1c(OC)cc(CNNc2nccs2)cc1OC,inactive: > 100 µM
16,COC(=O)c1ccc(/C=N/c2cc(C)nn2-c2ccccc2)cc1,inactive: 46.2 µM
17,CN(C)c1ccc(/C=C2\N=C(c3ccccc3)N(c3nc4ccc(Sc5ccccc5)cc4[nH]3)C2=O)cc1,inactive: 52.5 µM
18,COc1ccc(/C=C/C2=NN(c3cccc(S(=O)(=O)O)c3)C3(C2)SCC(=O)N3c2nc3ccccc3s2)cc1 (centres undefined),inactive: 93.1 µM
19,CN(C)C(=O)C(NCCO)c1ccccc1 (centres undefined),inactive: > 100 µM
20,C[n+]1c2n(c3nc(N)[nH]c(=O)c31)C1OC(C2)C(O)C1O (centres undefined),inactive: > 100 µM
21,CC1=NN(c2nc(N)nc(CF)n2)C(C)(C)C1,inactive: > 100 µM
22,CCN1C(=O)CS/C1=N\NC(=O)CSc1nc2ccccc2c(=O)n1CC,inactive: > 100 µM
23,COc1cccc(-c2nc(-c3cnccn3)n(C/C=C/c3ccccc3)n2)c1,inactive: > 10 µM

row,SMILES,GI50
1,COc1cc2c(cc1OC)C(Cl)C(c1cc(OC)c(OC)c(OC)c1)=C2Cl (centres undefined),inactive: 16.3 µM
2,Cc1cccc(C(C)(C)C)c1NC(=O)C(=O)C(C(=O)/C=C\c1ccccc1)C1OC(=O)c2ccccc21 (centres undefined),inactive: > 100 µM
3,O=P(NC12CC3CC(CC(C3)C1)C2)(N1CC1)N1CC1,inactive: > 100 µM
4,COc1cc(C(=O)Oc2c(C(C)=O)sc3c2c(=O)n(-c2ccccc2)c(=S)n3-c2ccccc2)cc(OC)c1OC,inactive: 23.7 µM
5,COc1ccc2[nH]c(CCNC(=O)c3cc([N+](=O)[O-])cc([N+](=O)[O-])c3)cc2c1,inactive: > 100 µM
6,CCCCCCCCC(C)CCCCCCCCC(=O)OCC(COP(=O)([O-])OCC[N+](C)(C)C)OC(=O)CCCCCCCCC(C)CCCCCCCC (centres undefined),inactive: > 100 µM
7,Cc1ccc2c(c1C)C(=O)/C(=C/c1ccccc1C(=O)O)C2,inactive: > 100 µM
8,CCOC(=O)C(=O)C(CCC(=O)c1ccc2ccccc2c1O)C(=O)OCC (centres undefined),inactive: > 100 µM
9,CC1(C)CCC2(C(=O)OC3OC(CO)C(O)C(O)C3O)CCC3(CO)C(=CCC4C5(C)CC(O)C(O)C(C)(C(=O)OC6OC(CO)C(O)C(O)C6O)C5CCC43C)C2C1 (centres undefined),inactive: > 100 µM
10,Oc1[nH]c(Nc2ccc(Cl)c(C(F)(F)F)c2)nc2ncnc1-2,inactive: 38.4 µM
11,Nc1c2ccccc2nc2ccc3c(=O)cc(-c4ccccc4)oc3c12,active: 1.02 µM
12,CCC(C)C(NC(=O)C(CCCC[N+](=N)N)NC(=O)C(CCCC[N+](=N)N)NC(=O)c1ccc(OC)cc1)C(=O)NC(CCCC[N+](=N)N)C(=O)N1CCCC1C(=O)NC(CCCCN)C(=O)NC(CC(C)C)C(N)=O (centres undefined),inactive: > 100 µM
13,COc1ccccc1N1C(Cl)C(=O)C1c1c[nH]c2ccccc12 (centres undefined),inactive: 55 µM
14,CC1(C)Cc2cc(C(=O)O)c3c(c2C1=O)COCC3,inactive: > 100 µM
15,CCN(CC)CC/N=c1\c2cc(OC)ccc2[nH]c2c([N+](=O)[O-])ccc(NCCN(CC)CC)c12,inactive: 1.3 µM
16,C#CCCOC1(OC)N=NC(C)(C)O1 (centres undefined),inactive: > 100 µM
17,CCn1c(SCC(=O)N/N=C2\SCC(=O)N2c2ccc(C)cc2)nc2ccccc2c1=O,inactive: 15.1 µM
18,CC1=C2CCCC2=C/C(=N/Nc2ccc([N+](=O)[O-])cc2[N+](=O)[O-])CC1,inactive: > 100 µM
19,OCC1OC(OCC(O)C(O)C(O)C(/C=N/Nc2ccccc2)=N/Nc2ccccc2)C(O)C(O)C1O (centres undefined),inactive: 21.8 µM
20,COc1ccc(C(=O)/C=C/c2cc(O)c(O)c(F)c2F)c(OC)c1,inactive: 26.4 µM
21,CCCCCCNC(=S)N/N=C(\C)c1ccccn1,active: < 0.0274 µM
22,CCCSCC(P(=O)(O)O)P(=O)(O)O.NC1CCCCC1,inactive: > 100 µM
23,COc1ccc(C2=C(N)c3ccccc3C2=O)cc1,inactive: > 100 µM

row,SMILES,GI50
1,Fc1ccc(C(OCCN2CCC3CCC(C2)N3C/C=C/c2cccs2)c2ccc(F)cc2)cc1 (centres undefined),inactive: 12.6 µM
2,CC(C)(C)C1=C(Br)C(OC(=O)C(F)(F)F)(C(C)(C)C)OP1(=O)c1ccccc1 (centres undefined),inactive: 46.3 µM
3,Cn1c(=O)c(C(c2ccccc2)c2c(O)c3ccccc3n(C)c2=O)c(O)c2ccccc21,inactive: > 100 µM
4,O=C1CCC2C(O)c3cc4c(cc3C(c3ccc5c(c3)OCO5)N12)OCO4 (centres undefined),inactive: > 100 µM
5,CC(=O)/N=C1\N/C(=C/c2cc([N+](=O)[O-])ccc2O)CN1C,inactive: > 100 µM
6,O=C(C#Cc1ccccc1)N1CCCCC1,inactive: > 100 µM
7,COc1ccc2c(=O)cc(-c3ccc(OC)c(OC)c3OC)oc2c1,inactive: > 100 µM
8,N#CC(NNC(=O)c1c(Cl)c(Cl)c(Cl)c(Cl)c1-c1nc2cc(C(=O)c3ccccc3)ccc2[nH]1)c1cccc(Oc2ccccc2)c1 (centres undefined),inactive: 22.5 µM
9,COCC1OC([P+](c2ccccc2)(c2ccccc2)c2ccccc2)CC(OC)C1OC (centres undefined),inactive: 72.4 µM
10,O=C(COc1ccccc1Cl)N1N=C(c2ccccc2)CC1(O)c1ccccc1 (centres undefined),inactive: 18.8 µM
11,CCSc1nnc2c(-c3ccccc3)n[nH]c2n1,inactive: > 100 µM
12,CC1(C)C(=O)C(C)(C)C1=NN,inactive: > 100 µM
13,CCCN(CCC)C(=S)N/N=C/c1cccc(C)n1,active: 0.0261 µM
14,CCCC(=O)Oc1cc(OC(=O)CCC)c2c(C)cc(=O)oc2c1,inactive: 57 µM
15,Cc1cccc(C)c1NC(=O)C1C(=O)N(c2c(C)cccc2C)C(=O)/C1=N\N (centres undefined),inactive: > 100 µM
16,FC(F)(F)c1ccc(/N=C/C=C(/Nc2ccc(C(F)(F)F)cc2)c2ccc(Cl)cc2)cc1,inactive: 14 µM
17,Cc1cc2ncn(CC(=O)O)c2cc1C,inactive: > 100 µM
18,Cc1nc(C(N)=S)sc1C(=O)CC(=O)C(=O)Nc1nc2ccccc2[nH]1,inactive: > 100 µM
19,[O-][n+]1c(-c2ccccc2)c2nc3ccccc3nc2c2ccccc21,inactive: > 100 µM
20,CC(=O)Nc1ccc(S(=O)(=O)N/N=C/c2cc(I)cc([N+](=O)[O-])c2O)cc1,inactive: > 100 µM
21,O=C1NC2(C=Cc3c(ccc4ccccc34)O2)Oc2ccccc21 (centres undefined),inactive: 27.3 µM
22,Cc1ccc(S(=O)(=O)c2ccccn2)cc1,inactive: > 100 µM
23,CC(=O)CCC[C@@H](C)[C@@H]1O[C@H]([C@@]2(C)CCC(=O)O2)C[C@H]2C(CSc3ccccc3)C(=O)O[C@@H]12 (some centres undefined),inactive: 3.7 µM

row,SMILES,GI50
1,CCOP(=O)(OCC)[C@H](O)c1ccsc1,inactive: > 100 µM
2,CN1C(=O)C(O)CC1c1ccc(C(F)(F)F)cc1 (centres undefined),inactive: > 100 µM
3,COC(=O)[C@]1(c2cc3ccccc3[nH]2)CC2CN(C(=O)OCc3ccccc3)C1C=C2OC (some centres undefined),inactive: 50.9 µM
4,C=C(CCC=C(C)C)C1CC=C(C)CC1 (centres undefined),inactive: 81.3 µM
5,Cc1nn2c(C(=O)N/N=C/c3ccc([N+](=O)[O-])cc3)c(C)nc2s1,inactive: > 100 µM
6,COc1ccc2nccc(C3OC(=O)N4CCC(=O)CC34)c2c1 (centres undefined),inactive: > 100 µM
7,C[N+]12CCCCC1C(COc1cccc3cccnc13)CCC2 (centres undefined),inactive: > 100 µM
8,COc1cc(S(=O)(=O)Nc2ccc(-c3csc(N4C(=O)C(Cl)C4c4ccccc4)n3)cc2)ccc1Cl (centres undefined),inactive: > 100 µM
9,COc1cc(/C=C/c2ccnc3ccccc23)cc(OC)c1OC,inactive: 7.83 µM
10,CC1=NN(C(=O)Cc2ccccc2)C(=O)/C1=C\c1ccccc1O,inactive: > 100 µM
11,Cc1cc2c(s1)C(N)CC2=O (centres undefined),inactive: > 100 µM
12,O=C1c2ccccc2OCC12OC21C=CC(Cl)=CC1 (centres undefined),inactive: 24.9 µM
13,"C=CCC1OC(=O)CCNC(=O)[C@H](C)N(C)C(=O)[C@H](C(C)C)N(C)C(=O)[C@H](C(C)CC)NC(=O)[C@@H]2CCCN2C1=O (some centres undefined) (HELM PEPTIDE1{[CCC(C)[C@H](N[*:1])C(=O)[*:2]].[meV].[meA].[bAla].[C=CCC(O[*:1])C(=O)[*:2]].P}$PEPTIDE1,PEPTIDE1,1:R1-6:R2$$$V2.0)",inactive: > 22.9 µM
14,C#CC(O)Cc1ccc(OC)c2occc12 (centres undefined),inactive: > 100 µM
15,O=C1Nc2ccc(Br)cc2C1=Nc1cccnc1,inactive: 33.3 µM
16,COC(=O)C1(CCCCl)CCCN1C(=O)OC(C)(C)C (centres undefined),inactive: > 100 µM
17,Nc1nc[n+](Cc2ccccc2CCO)c2[nH]cnc12,inactive: > 100 µM
18,N#Cc1cnn2ccn(C3OC(COC(=O)c4ccccc4)C(OC(=O)c4ccccc4)C3OC(=O)c3ccccc3)c12 (centres undefined),inactive: > 31.6 µM
19,CCOC(=O)c1sc2nc(SC)nc3c2c1N=CN3c1ccccc1Cl,inactive: > 100 µM
20,CN(C)CCC(=O)c1ccccc1,inactive: > 100 µM

#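 Cultured in 96-well plates, cells were exposed to test compound for 48 hours across five concentrations. GI50 is the concentration that inhibits growth by half.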 Activity calls are given as the source filed them. No stated cut-off is given here; in the data, active = GI50 up to about 1.1 µM and inactive = higher. Peptide text beside a SMILES is read from it.
